From PMC5973263 come the findings set out here.

Amino acid sequences for entries named in this document (tags omitted). A change or cut given only in a name is not applied to a line headed by its entry. Chains listed by the source or under a name are the forms on record and can include a tag or linker. Residues count along the entry.
UniProt D4A5I9: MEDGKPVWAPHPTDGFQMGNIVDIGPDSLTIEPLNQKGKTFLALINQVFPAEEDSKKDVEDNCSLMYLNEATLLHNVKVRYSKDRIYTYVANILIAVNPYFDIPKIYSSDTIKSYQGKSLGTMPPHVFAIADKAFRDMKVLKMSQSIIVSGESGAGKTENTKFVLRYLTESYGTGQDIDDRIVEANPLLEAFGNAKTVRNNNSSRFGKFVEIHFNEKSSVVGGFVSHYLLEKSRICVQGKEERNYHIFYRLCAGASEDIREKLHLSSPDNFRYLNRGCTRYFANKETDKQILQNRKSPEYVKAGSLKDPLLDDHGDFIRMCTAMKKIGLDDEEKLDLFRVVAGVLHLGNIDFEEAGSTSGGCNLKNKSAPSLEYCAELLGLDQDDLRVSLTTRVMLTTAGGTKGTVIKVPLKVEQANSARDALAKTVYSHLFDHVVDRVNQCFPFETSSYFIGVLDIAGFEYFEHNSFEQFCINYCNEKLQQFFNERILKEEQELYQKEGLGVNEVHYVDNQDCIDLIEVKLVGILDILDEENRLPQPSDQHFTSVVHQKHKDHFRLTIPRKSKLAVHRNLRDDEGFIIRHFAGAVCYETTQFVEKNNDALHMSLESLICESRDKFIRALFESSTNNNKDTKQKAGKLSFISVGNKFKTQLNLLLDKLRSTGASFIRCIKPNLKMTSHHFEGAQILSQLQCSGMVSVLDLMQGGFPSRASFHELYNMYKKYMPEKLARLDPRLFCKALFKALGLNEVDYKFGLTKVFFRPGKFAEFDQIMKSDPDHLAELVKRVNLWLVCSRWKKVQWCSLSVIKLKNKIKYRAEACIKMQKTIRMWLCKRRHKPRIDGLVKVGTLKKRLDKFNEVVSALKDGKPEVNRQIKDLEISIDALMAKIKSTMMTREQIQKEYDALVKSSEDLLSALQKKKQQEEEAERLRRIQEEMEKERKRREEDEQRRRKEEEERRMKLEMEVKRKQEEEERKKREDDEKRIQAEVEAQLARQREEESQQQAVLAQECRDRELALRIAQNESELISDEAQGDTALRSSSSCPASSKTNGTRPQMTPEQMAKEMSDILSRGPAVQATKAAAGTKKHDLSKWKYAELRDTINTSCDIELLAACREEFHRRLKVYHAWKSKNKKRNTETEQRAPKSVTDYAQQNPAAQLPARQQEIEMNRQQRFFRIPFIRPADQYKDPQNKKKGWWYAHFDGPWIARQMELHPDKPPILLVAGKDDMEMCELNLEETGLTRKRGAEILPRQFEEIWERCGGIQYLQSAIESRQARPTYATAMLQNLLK
GST-fused MVI globular tail domain: residues 1046-1285 of D4A5I9
UniProt P13383: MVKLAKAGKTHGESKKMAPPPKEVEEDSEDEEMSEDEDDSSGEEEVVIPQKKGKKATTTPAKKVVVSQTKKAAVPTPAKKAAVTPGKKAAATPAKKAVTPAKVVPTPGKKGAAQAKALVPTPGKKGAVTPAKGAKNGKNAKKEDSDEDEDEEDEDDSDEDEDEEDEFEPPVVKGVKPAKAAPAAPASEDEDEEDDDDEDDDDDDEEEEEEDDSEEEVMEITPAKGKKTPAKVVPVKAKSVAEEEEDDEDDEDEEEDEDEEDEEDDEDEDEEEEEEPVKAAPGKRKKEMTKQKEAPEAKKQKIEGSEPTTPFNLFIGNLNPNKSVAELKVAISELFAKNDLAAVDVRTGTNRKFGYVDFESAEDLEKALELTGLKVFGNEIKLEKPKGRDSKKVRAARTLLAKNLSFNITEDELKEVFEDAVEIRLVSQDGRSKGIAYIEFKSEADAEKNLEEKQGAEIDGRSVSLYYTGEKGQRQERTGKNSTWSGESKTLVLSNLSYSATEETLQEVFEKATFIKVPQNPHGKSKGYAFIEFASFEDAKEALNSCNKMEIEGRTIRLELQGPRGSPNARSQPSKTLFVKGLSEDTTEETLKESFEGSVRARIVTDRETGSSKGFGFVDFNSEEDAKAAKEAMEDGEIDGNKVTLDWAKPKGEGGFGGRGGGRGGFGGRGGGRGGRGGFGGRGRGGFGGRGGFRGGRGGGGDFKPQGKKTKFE
UniProt Q6IMY8: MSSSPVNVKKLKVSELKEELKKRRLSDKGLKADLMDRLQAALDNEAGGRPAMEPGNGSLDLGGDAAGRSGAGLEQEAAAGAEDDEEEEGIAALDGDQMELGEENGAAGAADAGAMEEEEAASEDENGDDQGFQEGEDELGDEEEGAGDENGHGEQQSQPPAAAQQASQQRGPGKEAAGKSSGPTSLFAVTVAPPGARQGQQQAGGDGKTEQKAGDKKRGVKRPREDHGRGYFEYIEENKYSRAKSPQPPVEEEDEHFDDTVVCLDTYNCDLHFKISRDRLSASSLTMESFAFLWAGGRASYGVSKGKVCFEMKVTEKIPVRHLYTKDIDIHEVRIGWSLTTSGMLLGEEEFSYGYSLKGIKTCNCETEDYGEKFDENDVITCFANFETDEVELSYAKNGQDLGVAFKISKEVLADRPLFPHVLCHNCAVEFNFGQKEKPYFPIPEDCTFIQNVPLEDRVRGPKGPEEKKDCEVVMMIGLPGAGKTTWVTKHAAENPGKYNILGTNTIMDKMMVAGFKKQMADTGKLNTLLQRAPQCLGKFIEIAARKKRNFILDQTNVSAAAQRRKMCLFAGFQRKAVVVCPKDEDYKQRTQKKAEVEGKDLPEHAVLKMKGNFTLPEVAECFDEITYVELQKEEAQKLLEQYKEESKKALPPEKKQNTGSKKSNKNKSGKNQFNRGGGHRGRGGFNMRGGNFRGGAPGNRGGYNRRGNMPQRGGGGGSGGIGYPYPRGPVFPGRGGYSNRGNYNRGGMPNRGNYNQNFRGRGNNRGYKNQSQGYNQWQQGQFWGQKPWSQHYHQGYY
UniProt Q00438: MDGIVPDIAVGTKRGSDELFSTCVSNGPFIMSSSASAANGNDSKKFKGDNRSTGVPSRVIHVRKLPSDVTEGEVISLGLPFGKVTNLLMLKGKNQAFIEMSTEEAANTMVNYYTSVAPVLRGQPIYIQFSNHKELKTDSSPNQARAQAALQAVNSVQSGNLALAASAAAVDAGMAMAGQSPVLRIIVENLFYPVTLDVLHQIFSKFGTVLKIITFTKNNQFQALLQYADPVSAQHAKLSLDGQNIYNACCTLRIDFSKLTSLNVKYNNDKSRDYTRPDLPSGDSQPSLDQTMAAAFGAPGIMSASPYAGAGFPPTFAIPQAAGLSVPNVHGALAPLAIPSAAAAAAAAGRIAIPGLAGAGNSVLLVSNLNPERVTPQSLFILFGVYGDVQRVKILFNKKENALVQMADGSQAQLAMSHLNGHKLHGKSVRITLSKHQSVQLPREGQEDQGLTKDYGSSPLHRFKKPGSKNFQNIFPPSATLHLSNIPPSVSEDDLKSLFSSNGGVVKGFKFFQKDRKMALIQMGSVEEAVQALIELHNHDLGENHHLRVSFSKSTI
UniProt A7VJC2: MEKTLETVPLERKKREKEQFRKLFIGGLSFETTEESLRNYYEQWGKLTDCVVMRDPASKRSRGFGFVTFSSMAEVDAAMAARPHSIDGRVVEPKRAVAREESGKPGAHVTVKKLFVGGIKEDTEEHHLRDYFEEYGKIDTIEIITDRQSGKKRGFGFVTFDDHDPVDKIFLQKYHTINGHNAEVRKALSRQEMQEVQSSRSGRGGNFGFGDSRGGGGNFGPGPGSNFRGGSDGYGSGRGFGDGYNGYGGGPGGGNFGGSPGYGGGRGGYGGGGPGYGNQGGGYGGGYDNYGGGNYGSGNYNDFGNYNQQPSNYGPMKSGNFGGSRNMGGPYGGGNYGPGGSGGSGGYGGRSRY

Assay [1] deals with GST-fused MVI globular tail domain (rat) (UniProt D4A5I9). The assay is described as follows: pull-down; GST-MVI globular tail or GST alone on Glutathione Sepharose 4B, PC12 cell homogenate; eluted fractions probed by immunoblot; only the target purified. (In western blotting, separated proteins are transferred to a membrane and probed.)
Assay [2] concerns the target Myosin VI (endogenous, PC12 cells) (rat (endogenous in PC12)) (UniProt D4A5I9). The assay is described as follows: proximity ligation; Duolink in situ PLA on fixed PC12 cells; rabbit anti-MVI with mouse anti-hnRNPU or anti-nucleolin; primary antibodies omitted as negative control.
Assay [3] has the same target. In words: co-IP; endogenous proteins from stimulated PC12 cell lysates; anti-MVI or anti-hnRNPU antibody (normal rabbit serum as control), A/G agarose beads, 4°C; 50 mM Tris pH 7.5, 150 mM NaCl, 2 mM EDTA, 0.2% Triton X-100, 2 mM MgCl2, 2 mM MgATP.

These are yes or no findings as the source states them, for the method shown. Binding seen in cells or lysates may run through a third protein. Some results given as binding are weak or reduced against the parent protein; the word gives no strength.

As to “nucleolin, isoform CRA_d (from UniProt P13383 1-713)”, the binding entry in assay [1] and in assay [2] was “binds” in each case.

Regarding “SP120 /heterogeneous nuclear ribonucleoprotein U (from UniProt Q6IMY8 1-798)”, the binding result in assay [1], in assay [2] and in assay [3] was “binds” each time.

With PTBP1 (from UniProt Q00438 1-556), in assay [1], the binding result is “no binding”.

As to hnRNPA2/B1 (from UniProt A7VJC2 1-353), the binding result in assay [1] is reported as “binds”.

B1: hnRNPL (protein, UniProt F1LQ48 1-623)
chain: MSRRLLPRAEKRRRRLEQRQQPDEQLRRAGAMVKMAAAGGGGGGGRYYGGGNEGGRAPKRLKTENAGDQHGGGGGGGSGAAGGGGGENYDDPHKTPASPVVHIRGLIDGVVEADLVEALQEFGPISYVVVMPKKRQALVEFEDVLGACNAVNYAADNQIYIAGHPAFVNYSTSQKISRPGDSDDSRSVNSVLLFTILNPIYSITTDVLYTICNPCGPVQRIVIFRKNGVQAMVEFDSVQSAQRAKASLNGADIYSGCCTLKIEYAKPTRLNVFKNDQDTWDYTNPNLSGQGDPGSNPNKRQRQPPLLGDHPAEYGEGRGFPSVDSRGSCAPARRPPRKFSPVLPLFPSHPPGGPHGGYHSHYHDEGYGPPPPHYEGRRMGPPVGGHRRGPSRYGPQYGHPPPPPPPPDYGPHADSPVLMVYGLDQSKMNCDRVFNVFCLYGNVEKVKFMKSKPGAAMVEMADGYAVDRAITHLNNNFMFGQKMNVCVSKQPAIMPGQSYGLEDGSCSYKDFSESRNNRFSTPEQAAKNRIQHPSNVLHFFNAPLEVTEENFFEICDELGVKRPTSVKVFSGKSERSSSGLLEWDSKSDALETLGFLNHYQMKNPNGPYPYTLKLCFSTAQHAS
In the case of B1, the binding result in assay [1] was “binds”.
